# In the BET-seq Pho4 binding data (Le et al. 2018):
# The other results are listed elsewhere or left out. These are noisy estimates, calculated here from bound and input reads.
# Target: T1, Pho4 (S. cerevisiae) (UniProt P07270)
# T1 sequence: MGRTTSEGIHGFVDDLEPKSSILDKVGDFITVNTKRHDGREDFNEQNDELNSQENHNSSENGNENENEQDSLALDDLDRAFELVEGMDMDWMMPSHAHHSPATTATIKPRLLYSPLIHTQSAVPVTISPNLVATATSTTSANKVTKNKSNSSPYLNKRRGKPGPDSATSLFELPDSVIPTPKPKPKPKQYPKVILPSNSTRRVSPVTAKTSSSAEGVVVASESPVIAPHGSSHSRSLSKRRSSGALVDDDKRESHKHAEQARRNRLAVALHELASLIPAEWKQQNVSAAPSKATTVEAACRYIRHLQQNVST
# Experiment: relative binding free energy (BET-seq); higher = weaker binding
# Conditions: reference: library average
row,Sequence,relative binding free energy [kcal/mol]
1,TTTAGCACGTGCGCTT,-0.09
2,TGGTTCACGTGGAGAA,0.24
3,GTGTTCACGTGGTGGC,0.28
4,TATTCCACGTGGGGGA,-0.01
5,CGAATCACGTGGGTGT,-0.12
6,TTAGACACGTGTTTAA,-0.07
7,ATTTACACGTGAGCTT,0.35
8,TCATTCACGTGATTGT,0.3
9,AAGGTCACGTGTTGGC,0.05
10,AACTTCACGTGATGGG,0.22
11,CTAGACACGTGGTGAT,0
12,GGTTACACGTGAAGGT,0.39
13,TGAGTCACGTGATGAA,0.33
14,GATTGCACGTGTGCGG,0.18
15,AGAATCACGTGGTGTT,0.11
16,CATTGCACGTGGGCTT,-0.06
17,GGATTCACGTGGATAA,0.41
18,GTACGCACGTGGTAGT,-0.17
19,TGTGCCACGTGAAGAT,0.22
20,GTAAGCACGTGGGCAA,-0.02
21,GTGAGCACGTGTACTG,-0.02
22,GGTGTCACGTGAGCCT,0.24
23,ATAATCACGTGGCGGG,0.06
24,GGGATCACGTGTTTAG,0.24
25,ATAGGCACGTGATGTG,-0.08
26,TGTAACACGTGGTGCG,0.02

row,Sequence,relative binding free energy [kcal/mol]
1,GTGGGCACGTGAGTGA,0.13
2,TCGATCACGTGGTTTG,0.18
3,GCCTTCACGTGGTGGT,0.23
4,CTGTACACGTGTTTTG,-0.05
5,TGGCTCACGTGTTCTT,0.23
6,GGGGGCACGTGAGGTA,0.07
7,GGAATCACGTGGAAGT,0.32
8,GTTGACACGTGAGAAT,0.16
9,GTATGCACGTGTCTAT,0.05
10,TTTGGCACGTGCAGGA,-0.19
11,AGTGTCACGTGATTTT,0.39
12,ATTTGCACGTGTGTGG,0.07
13,TTGCGCACGTGGGATT,-0.13
14,TTTCGCACGTGAATTT,0.21
15,TAAATCACGTGTGGTG,0.18
16,GTATACACGTGGATGA,0.13
17,GTAATCACGTGTGTAG,0.21
18,TGAAGCACGTGATGGA,-0.07
19,TGGTCCACGTGTATTT,0.1
20,ACTTACACGTGGTTGT,0.06
21,TTGTACACGTGTCTGT,0.09
22,TAGATCACGTGAGGGC,0.52
23,AGTTGCACGTGTTAGC,0
24,GGGCGCACGTGGTAGT,-0.05
25,TCGGTCACGTGGTGGC,-0.03
26,ATCGGCACGTGTGGGG,0.01

row,Sequence,relative binding free energy [kcal/mol]
1,TTGAGCACGTGTCTGT,-0.2
2,TGACGCACGTGCGTGT,-0.18
3,TCTGTCACGTGTTCTG,0.04
4,TTTTTCACGTGGTCGA,0.27
5,TGTGTCACGTGTAATG,0.26
6,GTTGGCACGTGAAGTC,0.14
7,TAATGCACGTGCTGGG,-0.05
8,GGTAGCACGTGGTCAA,0
9,GGGTGCACGTGAGAGC,0.22
10,TCATGCACGTGGTGCG,-0.15
11,GAGTTCACGTGATTGT,0.41
12,GATGTCACGTGAGTTT,0.4
13,GCTGGCACGTGTGCGG,-0.22
14,TGATGCACGTGATATT,0.14
15,AAGGGCACGTGTTGAA,-0.14
16,GTTGCCACGTGTTAGG,0.01
17,CGGTTCACGTGGGTAT,0.21
18,TGGGACACGTGCTTGT,0.04
19,GTGGTCACGTGATTCA,0.27
20,TATTTCACGTGGGAAT,0.21
21,GGCATCACGTGTGTAG,0.24
22,AGTAACACGTGGTGTT,-0.12
23,TGGTACACGTGTTTTG,0.05
24,TAGCACACGTGTGGTT,-0.04
25,TGTTTCACGTGATCAG,0.29
26,CTGTGCACGTGCGGTC,0.03

row,Sequence,relative binding free energy [kcal/mol]
1,AGGAGCACGTGTAGTA,-0.13
2,TCTTTCACGTGGGGGA,0.24
3,TTCCGCACGTGGTAGG,-0.1
4,ATCGACACGTGGGTGA,-0.09
5,GGAAACACGTGTTGAG,0.14
6,ATGAGCACGTGTTGGG,-0.02
7,GTTGTCACGTGGAGAT,0.08
8,AGTTGCACGTGGTAAA,-0.04
9,GAATTCACGTGTAATT,0.26
10,TGAGGCACGTGTGTAC,-0.01
11,GTGGTCACGTGTCTGG,0.15
12,TTAGACACGTGCTGTG,0.01
13,TCAGGCACGTGGTGGC,-0.12
14,CGTCACACGTGGGTTG,-0.15
15,TATAGCACGTGTTATT,-0.07
16,GGTGGCACGTGCGTTA,0.01
17,AGAGGCACGTGTAGGA,0.02
18,GTAGACACGTGGGGGA,-0.02
19,TGTAACACGTGGGATA,-0.11
20,TAAATCACGTGGATTT,0.14
21,AGTTGCACGTGTCGTC,0.05
22,GGGAGCACGTGGTTGG,-0.06
23,GGGTACACGTGAGGGC,0.3
24,GGGGGCACGTGGTGCG,-0.15
25,TGTGGCACGTGCGCGC,-0.32
26,GTTCGCACGTGGGGTG,-0.14

row,Sequence,relative binding free energy [kcal/mol]
1,TGGGTCACGTGCCTTT,0.19
2,TGGACCACGTGAGGTA,0.15
3,TAAAGCACGTGGTCGG,-0.32
4,TGTACCACGTGGGCTT,-0.14
5,GACTGCACGTGGAGGG,-0.14
6,ATTGTCACGTGGGACT,-0.04
7,CGCGTCACGTGGATAG,0.14
8,TGTTTCACGTGGTAAG,0.23
9,TATATCACGTGTTGTG,0.03
10,TAGAGCACGTGTTGGC,-0.11
11,TATTGCACGTGTCTAA,0.06
12,TATGACACGTGTTAGG,0.02
13,GATGACACGTGGGTGC,-0.08
14,AAGAGCACGTGTGTAA,-0.05
15,GTAGACACGTGTTGTG,-0.03
16,TAAATCACGTGTGCTT,0.07
17,TGAAACACGTGTATAG,0.06
18,TTGCGCACGTGCAGGT,-0.24
19,CTAGGCACGTGGTGGG,-0.24
20,AGTGTCACGTGAGTGA,0.22
21,GTTAGCACGTGGGACA,-0.14
22,CAGTGCACGTGTGGAT,0.01
23,ATGCGCACGTGTTTTG,-0.08
24,TGGAGCACGTGTACGT,-0.11
25,GATGACACGTGTAGGG,0.02
26,GTCATCACGTGGGTAT,0.12

row,Sequence,relative binding free energy [kcal/mol]
1,TGTGGCACGTGGCGTT,-0.15
2,CGTGACACGTGTGGGC,-0.04
3,AGTTACACGTGTACAT,0.2
4,GATGTCACGTGTGTGG,0.23
5,TTAAACACGTGGGTTG,-0.17
6,CGGCGCACGTGTTGTA,-0.09
7,CTGGTCACGTGATATT,0.18
8,TTGGTCACGTGAGTGT,0.34
9,TTTAGCACGTGACTGT,0
10,GGGGCCACGTGGTTCG,-0.13
11,TCGAGCACGTGCGTTG,-0.05
12,TTTAACACGTGAAAGT,0.3
13,TTAGGCACGTGTAAAG,-0.06
14,AGCTGCACGTGTCGTG,0.12
15,CGAGTCACGTGGAGTA,0.01
16,TTAGTCACGTGTTGCT,0.02
17,TGCGGCACGTGGGCAG,-0.32
18,GAGTGCACGTGACGGT,0.03
19,GTCAACACGTGTGTTG,0.09
20,GATCGCACGTGGTGGT,-0.07
21,TTTACCACGTGTAAGG,0.03
22,GTCTTCACGTGGCGGA,0.27
23,TGTGACACGTGATGGC,0.19
24,CAATGCACGTGATGGT,0.12
25,CGGGTCACGTGGCGAG,0
26,AAAGGCACGTGGCTGG,-0.1

row,Sequence,relative binding free energy [kcal/mol]
1,AAGGGCACGTGGGATT,-0.13
2,GATAGCACGTGGTTAG,-0.07
3,AATAACACGTGTAGGT,-0.05
4,CTGTGCACGTGTGTTT,-0.01
5,TGCCTCACGTGTGGGT,0.39
6,GTATACACGTGTTGGA,0.12
7,AATTGCACGTGTGTCG,0.13
8,TTCGTCACGTGTTAGG,0.11
9,GAGGCCACGTGTGGTT,0.14
10,CTGGGCACGTGCGGAG,-0.09
11,ATGGACACGTGGAGTT,0.18
12,CTATGCACGTGGTTGT,-0.16
13,TTAGCCACGTGATTTG,0.05
14,TGGGCCACGTGTGGTA,-0.01
15,GCGAGCACGTGGAGGG,-0.23
16,TTCTTCACGTGAAGGT,0.36
17,GTAGGCACGTGAGTGT,0.21
18,ATGGGCACGTGTGCGA,-0.25
19,TGTGGCACGTGTACGG,-0.04
20,CCGTACACGTGAGGGG,0.24
21,CGGCGCACGTGGTGTT,-0.21
22,AATGGCACGTGATTAG,0.13
23,CCGGGCACGTGCGGGG,-0.23
24,GATTGCACGTGTTGGC,0.14
25,GTTTTCACGTGTGGTG,0.34
26,GGCAGCACGTGGGTGT,-0.25

row,Sequence,relative binding free energy [kcal/mol]
1,GTGGTCACGTGATGCT,0.3
2,ATGCGCACGTGCTGTG,-0.14
3,AGTTGCACGTGCCTGT,-0.13
4,GTTTACACGTGTTTCA,0.19
5,ATTAGCACGTGTTCGG,-0.19
6,ATCGGCACGTGAGCGG,0.05
7,GGTACCACGTGGGGGC,-0.22
8,TGATCCACGTGTGTTA,0.06
9,TCATTCACGTGGCAGT,0.28
10,AGGGCCACGTGATGTG,0
11,GGAACCACGTGGGTTG,-0.05
12,TGTCGCACGTGGTGGC,-0.17
13,CAGAGCACGTGTTGGG,-0.21
14,TATTGCACGTGTGTTA,-0.02
15,ATTTACACGTGTATAT,0.13
16,TCTTTCACGTGAGTTT,0.43
17,CTGCACACGTGTTGGG,0.08
18,AAATGCACGTGTTGAG,-0.03
19,TGGGTCACGTGTGGAG,0.19
20,TCAGGCACGTGGTTGA,-0.13
21,GATTGCACGTGTAAAG,0.11
22,GTAGGCACGTGGTGGC,-0.11
23,TCAGTCACGTGTGTTG,0.12
24,TTAGGCACGTGATGAC,0.1
25,CTTCTCACGTGGTGGA,0.21
26,GGTGGCACGTGCTGCG,-0.14

row,Sequence,relative binding free energy [kcal/mol]
1,TATTTCACGTGGGATA,0.11
2,GTTTCCACGTGGGGAA,0.08
3,ATTGGCACGTGAAATA,0.18
4,ACTAGCACGTGTTTTT,-0.09
5,CTGGACACGTGTGTGC,0.09
6,GTGGTCACGTGCTGGT,0.06
7,AGAATCACGTGTTGTT,0.21
8,ATGCTCACGTGGGCGG,-0.15
9,CTTATCACGTGAGGGT,0.25
10,TCTGTCACGTGTGCTG,0.05
11,TGGAGCACGTGATGAT,0.1
12,TAAGTCACGTGGTGGT,0.02
13,ATTGGCACGTGTTAGG,-0.07
14,TAGGACACGTGTTATG,0.09
15,TGGGTCACGTGAAAGC,0.44
16,TATGCCACGTGAGTTG,0.18
17,GATCGCACGTGGGTGA,-0.13
18,TGCGACACGTGTTTTG,-0.11
19,TAGATCACGTGGGATG,-0.12
20,GGCAGCACGTGGAAGG,0.02
21,TGGTACACGTGAAGAT,0.23
22,TGGAGCACGTGCGGAT,-0.08
